Test results from article PMC4336329 (PLoS ONE, 2015).
Among all 310,000 compounds or so, about 14,000 (4.5%) showed an effect of 50% or more. The effect is printed as a negative number. The list shows a part of the results.

What follows are molecules tested against human ether-à-go-go-related gene (hERG) potassium channel (human, UniProt Q12809) (assay: primary screen, population patch clamp on CHO cells stably expressing hERG).
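Further: peak tail current of the secondary pulse compared with the same well before compound.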

human ether-à-go-go-related gene (hERG) potassium channel, sequence (Q12809 whole entry, looked up): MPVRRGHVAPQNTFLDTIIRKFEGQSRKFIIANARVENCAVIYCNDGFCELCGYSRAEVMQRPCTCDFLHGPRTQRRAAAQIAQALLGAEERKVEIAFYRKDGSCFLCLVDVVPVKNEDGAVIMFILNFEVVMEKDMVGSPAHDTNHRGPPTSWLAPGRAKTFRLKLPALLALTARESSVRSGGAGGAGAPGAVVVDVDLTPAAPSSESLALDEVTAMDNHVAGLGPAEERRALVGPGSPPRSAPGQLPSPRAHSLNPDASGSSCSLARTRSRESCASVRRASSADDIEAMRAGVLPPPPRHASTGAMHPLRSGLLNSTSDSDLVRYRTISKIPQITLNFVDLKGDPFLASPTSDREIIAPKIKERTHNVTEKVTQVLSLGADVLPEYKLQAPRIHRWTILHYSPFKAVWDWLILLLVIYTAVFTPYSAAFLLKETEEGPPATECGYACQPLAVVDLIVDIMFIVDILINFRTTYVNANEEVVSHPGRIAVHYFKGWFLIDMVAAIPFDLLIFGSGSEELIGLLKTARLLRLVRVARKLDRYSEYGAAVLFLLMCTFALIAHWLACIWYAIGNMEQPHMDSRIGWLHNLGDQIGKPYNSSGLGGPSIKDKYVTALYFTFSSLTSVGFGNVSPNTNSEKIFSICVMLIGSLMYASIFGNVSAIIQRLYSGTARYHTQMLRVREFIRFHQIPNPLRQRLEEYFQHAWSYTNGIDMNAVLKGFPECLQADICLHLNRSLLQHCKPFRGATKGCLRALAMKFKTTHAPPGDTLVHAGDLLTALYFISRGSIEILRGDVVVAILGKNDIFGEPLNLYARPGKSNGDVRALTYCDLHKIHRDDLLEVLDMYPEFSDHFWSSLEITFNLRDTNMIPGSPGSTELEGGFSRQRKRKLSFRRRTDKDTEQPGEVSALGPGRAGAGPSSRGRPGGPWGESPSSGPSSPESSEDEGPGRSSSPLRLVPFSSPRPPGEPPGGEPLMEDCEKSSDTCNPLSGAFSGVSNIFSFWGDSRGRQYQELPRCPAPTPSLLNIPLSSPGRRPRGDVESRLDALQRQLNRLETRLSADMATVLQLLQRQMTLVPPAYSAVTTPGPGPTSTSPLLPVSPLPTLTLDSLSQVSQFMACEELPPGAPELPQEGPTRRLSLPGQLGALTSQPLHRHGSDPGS

Row | SMILES | hERG current change (%, negative = inhibition) at 10uM [%]
1 | O=C(OCCNc1nc(-c2ccccc2)nc2ccccc12)c1cccnc1 | -35.6
2 | COc1cccc(CN(C)C(=O)c2ccc3c(=O)n4c(nc3c2)CCC4)c1OC | 7.82
3 | O=C(Nc1ccc(Cl)cc1)Nc1ccc(N2CCCC2)c(S(=O)(=O)Nc2ccccc2Cl)c1 | 14.3
4 | COc1ccc(C2c3sc(=O)[nH]c3SC3C(=O)N(c4ccccc4)C(=O)C32)cc1 (stereo not drawn) | 1.65
5 | O=[N+]([O-])c1ccccc1OCCCOc1cccc2cccnc12 | -15.3
6 | NC(=O)C1CCCN1 (stereo not drawn) | 26.5
7 | CCOC(=O)c1c(N2C(=O)Nc3ccccc3N2O)sc2c1CCCC2 | 4.51
8 | COCCn1c(=O)[nH]c2cc(C(=O)NCCN3CCN(c4cccc(Cl)c4)CC3)ccc2c1=O | 12.8
9 | Cc1nc2nc[nH]n2c(=O)c1NC(=O)c1cccc(OCC(C)C)c1 | 4.96
10 | CCOC(=O)C1=C(OCc2ccc(Cl)cc2)C2C=C(C)C=CC2N=C1 (stereo not drawn) | -69.1
11 | CCOC(=O)CC1=C(C(=O)OCC)C(c2ccc(OC)cc2OC)C(C#N)=C(N)O1 (stereo not drawn) | 0.829
12 | CC(=O)NCC(=O)N1CCCC(C(=O)c2ccc3c4c(cccc24)CC3)C1 (stereo not drawn) | 8.94
13 | CCOC(=O)C1CCN(S(=O)(=O)c2cn(C)c(=O)n(C)c2=O)CC1 | 17.3
14 | O=C1OCC=C1NNC(=O)c1cccnc1 | 25.1
15 | Cn1c(Cc2ccc3c(c2)OCO3)nnc1SCC(=O)N1CCc2ccccc2C1 | -18.1
16 | O=C(COC(=O)c1cc[n+]([O-])cc1)Nc1cccc(Cl)c1Cl | 18.9
17 | CN(Cc1ccccc1)C(=O)[C@@H]1CCCN1S(=O)(=O)c1ccc(Cl)cc1 | -5.14
18 | Fc1ccc(-n2c(Cc3cccs3)n[nH]c2=S)cc1Cl | 12.6
19 | O=C(CN1CCCN(S(=O)(=O)c2ccc(Br)s2)CC1)Nc1ccc(Cl)cc1 | -28.7
20 | CCOc1ccc(NC(=O)CN(C)S(=O)(=O)c2ccc3c(c2)CCC(=O)N3)cc1 | -41.3
21 | CC(C)(C)OC(=O)NC1CONC1=O (stereo not drawn) | 12.1
22 | Cn1cc(SCC(=O)NCc2ccc(F)cc2)c2ccccc21 | -6.61
23 | Cc1occc1-c1nnc(SCC(=O)N2CCCC(C)C2)o1 (stereo not drawn) | -8.13
24 | Cn1c(=O)c2c(O)c([N+](=O)[O-])c(=O)n(C)c2n(C)c1=O | 18.1
